Results: the supplement of paper PMC4723716
Whole data set: some 3,600 compounds, median “viability index relative to DMSO control” near 0.81, cut for the lowest 2% near 0.13. The list shows a part of the results.

System: Plasmodium falciparum NF54 stage V gametocytes
Assay: viability index relative to DMSO control (fraction); higher = less gametocyte killing
Conditions: 1.25 µM, incubation time: 72 h
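Note: 384-well serum-free SaLSSA: MitoTracker Red CMXRos staining with saponin lysis, high-content imaging, treated-well particle count divided by plate-mean count of DMSO wells.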

SMILES | viability index
Cc1cccc(N2C(=O)C3C(C2=O)C2(c4ccccc4)C(=O)C3(c3ccccc3)C(c3ccc4c(c3)OCO4)=C2c2ccc3c(c2)OCO3)c1 (configuration not stated) | 0.958
N#CC(=Cc1cn(Cc2ccccc2Cl)c2ccccc12)c1nn(CCO)c(N)c1C#N | 0.517
Cc1ccc(-c2c3c(nc4sc(C(=O)Nc5ccc(Cl)cc5)c(N)c24)CCCC3)o1 | 1.01
Fc1ccccc1Nc1nc(NCC2CCCO2)c2ccccc2n1 (configuration not stated) | 0.727
CCC(C)OC(=O)C1=C(C)NC2=C(C(=O)CC(c3ccc(Cl)cc3)C2)C1c1cccc(O)c1 (configuration not stated) | 0.736
COc1ccccc1NC(=O)c1cnn(-c2ccccc2)c1-n1cccc1 | 0.9
CCN1C(=CC=Cc2oc3ccc(-c4ccccc4)cc3[n+]2CC)Oc2ccc(-c3ccccc3)cc21 | 0.238
CCCCCCCCn1c(C)[n+](CC)c2cc(C(=O)OCC)ccc21 | 0.975
CCc1nc2nc(C)cc(NCCc3cccc(C)c3)n2n1 | 0.855
CCN1C(=CC=Cc2n(CC)c3ccc(C#N)cc3[n+]2CC)Oc2ccc(-c3ccccc3)cc21 | 0.472
OC(CNCC1COc2ccccc2O1)c1ccccc1 (configuration not stated) | 0.929
COc1cc(C=C(C#N)c2nc3ccccc3[nH]2)ccc1OCc1ccccc1F | 0.725
CCN(CC)CCN1C(=O)c2ccccc2NC1c1ccc(N(C)C)cc1 (configuration not stated) | 0.794
Cc1ccc(N=C2SC(=Cc3c(Cl)cccc3Cl)C(=O)N2c2ccc(C)c(C)c2)cc1C | 0.883
Oc1ccc(-c2ccc(F)cc2)cc1CNC1CCCCC1 | 0.351
CCOC(=O)N1CCN(C(=O)CSc2nc(-c3ccc(Cl)cc3)cn2-c2ccc(C)cc2)CC1 | 1.12
c1cc2c(cc1Nc1c3c(nc4nncn14)CCC3)OCCO2 | 1.13
CSc1nc2nc(C)c(Cc3cccc(C(F)(F)F)c3)c(C)n2n1 | 0.785
CCCN1CCC(NC2CCCc3c2[nH]c2ccc([N+](=O)[O-])cc32)CC1 (configuration not stated) | 0.853
O=C1Nc2ccccc2C1=NN=Cc1ccc(-c2ccccc2[N+](=O)[O-])o1 | 0.859
Cc1cc(C)c(S(=O)(=O)N2CCC(NC(=O)c3ccccc3)CC2)c(C)c1 | 0.862
CC(=O)OC(OC(C)=O)C12C=CC(O1)C1C(=O)N(c3cccc(C)c3)C(=O)C12 (configuration not stated) | 1.22

SMILES | viability index
CCOc1cc2c(cc1OCC)C(c1ccc(O)c(Cl)c1)NCC2 (configuration not stated) | 0.905
O=C1Nc2ccc(S(=O)(=O)Nc3ccc(NS(=O)(=O)c4ccc5c6c(cccc46)C(=O)N5)cc3)c3cccc1c23 | 0.788
Clc1ccc2[nH]c3c(NCCC4=CCCCC4)ncnc3c2c1 | 0.758
COc1c(C=NNc2nc(Nc3ccc([N+](=O)[O-])cc3)nc(N3CCN(C)CC3)n2)cccc1[N+](=O)[O-] | 0.722
CC(=O)N(C1=C(N(C)C)C(=O)c2ccccc2C1=O)c1ccc(Cl)c(Cl)c1 | 0.257
CC(C)N(CC(=O)Nc1cc(C(C)(C)C)nn1-c1ccc(Cl)c(Cl)c1)C(=O)c1ccc2ccccc2c1 | 1.01
Cc1cc2c(cc1C)N(C(=O)c1ccccc1)C(C)(C)c1ssc(=S)c1-2 | 1.1
Cc1oc2c(c1C(=O)NCCCn1ccnc1)C(=O)c1ccccc1C2=O | 0.0826
O=C(c1ccc([N+](=O)[O-])cc1)c1ccc(N2CCOCC2)c([N+](=O)[O-])c1 | 1.09
c1ccc(CCNc2ncnc3c2[nH]c2ccccc23)cc1 | 0.785
OC1(c2cccc3ccccc23)CCN(Cc2ccccc2)C1 (configuration not stated) | 0.785
O=c1cc(C(F)(F)F)c2cc(Cl)c(O)cc2o1 | 1
CCOc1ccc(S(=O)(=O)c2cn(Cc3ccccc3C)c3ccc(OC)cc3c2=O)cc1 | 0.867
CC1=[N+](CC(=O)c2ccc(C)cc2)CCn2c(C)ccc21 | 0.67
CCOC(=O)C(=O)N1c2ccc(OCC)cc2-c2c(ssc2=S)C1(C)C | 0.751
CCOC(=O)c1sc(Nc2c(Cl)cc(S(N)(=O)=O)cc2Cl)nc1C | 0.886
CCC(CC)CN1CCC(O)(c2ccc3oc(C(=O)Nc4ccc(OC)cc4)cc3c2)CC1 | 1.01
O=C(C1CCN(S(=O)(=O)c2cccc3nonc23)CC1)N1CCCc2ccccc21 | 0.823
Cc1ccc2[nH]c3c(NCCN(C(C)C)C(C)C)ncnc3c2c1 | 1.01
N#Cc1c(N)nc(SCC(=O)c2ccc(Br)cc2)c(C#N)c1-c1ccccc1 | 0.857
COc1cc2c(cc1OC)C(COc1ccc(F)cc1)N(C(=O)c1ccc(OC(C)C)cc1)CC2 (configuration not stated) | 0.66
COC(=O)C1=C(C)NC2=C(C(=O)CC(c3ccc(Cl)cc3)C2)C1c1ccccc1 (configuration not stated) | 0.762

SMILES | viability index
CCC(C)OC(=O)C1=C(C)NC2=C(C(=O)CC(c3ccc(Cl)cc3)C2)C1c1ccccc1F (configuration not stated) | 0.849
COc1ccc(C2CC(=O)C3=C(C2)NC(C)=C(C(=O)OC2CCCC2)C3c2ccc(Cl)cc2)cc1OC (configuration not stated) | 0.347
COC(=O)C1=C(C)N(C)C(C)=C(C(=O)OC)C1c1ccc([N+](=O)[O-])cc1 | 0.811
COc1ccccc1N1CCN(c2ccc(NC(=O)c3cccc(F)c3)cc2C(=O)N2CCCC2)CC1 | 0.893
Cc1ccc(N2C(N)=NC(N)=NC2(C)C)cc1 | 0.985
CCC1CCCCN1C(=O)c1cc(-c2ccccc2OC)on1 (configuration not stated) | 0.661
CCN1C(=CC=Cc2sc3ccccc3[n+]2CC)Sc2ccccc21 | 0.188
O=C(Nc1ccc2oc(-c3cccc4ccccc34)nc2c1)c1ccc([N+](=O)[O-])o1 | 0.0679
Cc1nn(-c2cc(N3CCOCC3)ccc2[N+](=O)[O-])c(=O)c2ccccc12 | 1.02
COc1ccc(C2CC(=O)C3=C(C2)NC(C)=C(C(=O)OC(C)C)C3c2ccccc2Br)cc1 (configuration not stated) | 0.494
COc1cccc2cc(-c3nc(-c4ccccc4)cs3)c(=O)oc12 | 1.23
CCCCOc1nc(-c2ccc(OC)cc2)n(C(=O)c2ccccc2OC)n1 | 0.702
CCn1c(C=CN(C(C)=O)c2ccccc2)[n+](CC)c2cc(Cl)ccc21 | 0.724
CCOC(=O)c1c(NC(=O)CSc2nnc(CNC(=O)c3cccc(C)c3)n2Cc2ccccc2)sc2c1CCCC2 | 0.651
Cc1nc2ccccc2c(=O)n1NC(=O)c1cccc([N+](=O)[O-])c1 | 0.804
CN(C)c1cc[n+](Cc2c(Cl)cccc2Cl)cc1 | 0.675
CCOC(=O)c1ccc(N(C(=O)Cc2c[nH]c3ccccc23)C(C(=O)NC2CCCCC2)c2cccnc2)cc1 (configuration not stated) | 0.513
COc1ccc(C2CC(=O)C3=C(C2)NC(=O)CC3c2ccc([N+](=O)[O-])cc2)cc1OC (configuration not stated) | 0.406
CCOC(=O)C1=C(c2ccccc2)N=c2sc(=Cc3ccccc3O)c(=O)n2C1c1c(OC)ccc2ccccc12 (configuration not stated) | 0.717
CCCCCCOC(=O)C1=C(C)NC(=O)NC1c1ccccc1F (configuration not stated) | 1.43
O=C(CN1CCCC1)N1N=C(c2cccs2)CC1c1ccc(F)cc1 (configuration not stated) | 0.694
Cc1ccc(-n2c(SCc3cccc4ccccc34)nc3sc4c(c3c2=O)CCN(C)C4)cc1 | 1.21

SMILES | viability index
O=[N+]([O-])c1ccc(N2CCCN(C(=S)Nc3ccccc3)CC2)nc1 | 0.0788
CN(C)CC(O)Cn1c2ccccc2c2ccccc21 (configuration not stated) | 1.24
Cc1ccnc(Nc2nc(-c3c(C)nc4sccn34)cs2)c1 | 0.822
COc1cccc(OC)c1C(=O)Oc1cccc2ccc(C)nc12 | 0.706
COc1ccc2nc(-c3ccccc3)cc(O)c2c1 | 0.712
CCOC(=O)c1c[nH]c2ccc(C)cc2c1=O | 0.642
CC(C)(C)c1ccc(-c2c[n+](-c3ccccc3)c3n2CCCS3)cc1 | 0.945
Cc1cccc(NC(=O)c2cc(Cl)nc3ccccc23)c1 | 0.878
Cn1c(C(=O)c2cccc3ccccc23)nc2ccccc21 | 1.26
O=C(Nc1cccc(Cl)c1)Nc1cc(C(F)(F)F)cc(C(F)(F)F)c1 | 0.99
Cc1nn(CC(O)Cn2c3ccc(Br)cc3c3cc(Br)ccc32)c(C)c1Br (configuration not stated) | 0.634
CCCOc1ccc(C2Sc3ccccc3N=C3C2=C(O)c2ccccc23)cc1OC (configuration not stated) | 0.699
Fc1ccc(CN2CCc3nc(N4CCCCC4)sc3C2)cc1F | 0.923
COc1ccccc1/C=C/CN1CCN(c2ccccn2)CC1 | 1.15
COc1cc(C=NNC(=O)c2ccc(C(=O)NN=Cc3ccc(O)c(OC)c3)cc2)ccc1O | 0.727
O=C(Nc1cc(C(=O)N2CCC(Cc3ccccc3)CC2)ccc1N1CC2CC(C1)c1cccc(=O)n1C2)c1cccs1 (configuration not stated) | 0.336
COc1ccc(CN(C=O)/C=C2\Sc3ccccc3C2=O)cc1OC | 0.996
Cc1cc(C)nc(NNc2c([N+](=O)[O-])cccc2[N+](=O)[O-])n1 | 0.358
CCN(CC)S(=O)(=O)c1ccc2[nH]cc(C(=O)NCCCN3CCN(c4ccc(OC)cc4)CC3)c(=O)c2c1 | 1.14
COc1ccc(C2CC(=O)C3=C(C2)NC(C)=C(C(=O)OC2CCCC2)C3c2cccc(Cl)c2)cc1OC (configuration not stated) | 0.734
CCOc1ccc(C(=O)CN2C(=O)c3ccccc3OC(C(C)C)C2=O)cc1[N+](=O)[O-] (configuration not stated) | 0.744
